Reference: the supplement of paper PMC8728848
Some of the results follow.

What was measured:
Assay in all cases: glycan array binding signal (z-score within array); higher = stronger binding
Details in all cases: glycan notation: IUPAC condensed, linker removed
[1] = molecular target: GlcNAc(b1-3)Gal(b1-4)GlcNAc(b1-3)Gal(b1-4)GlcNAc(b1-2)Man(a1-3)[GlcNAc(b1-3)Gal(b1-4)GlcNAc(b1-3)Gal(b1-4)GlcNAc(b1-2)Man(a1-6)]Man(b1-4)GlcNAc(b1-4)GlcNAc
How it was run: (§1)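 The binding signal is a Z-score computed within each array. Data were drawn from 3228 arrays in the Consortium for Functional Glycomics database, restricted to those with a known protein sequence. Scores were averaged over arrays of the same protein sequence at different concentrations or buffers, and over linkers, and negative values can be taken as non-binding.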

[2] = molecular target: GlcNAc(b1-3)Gal(b1-4)GlcNAc(b1-3)Gal(b1-4)GlcNAc(b1-2)Man(a1-3)[GlcNAc(b1-3)Gal(b1-4)GlcNAc(b1-3)Gal(b1-4)GlcNAc(b1-2)Man(a1-6)]Man(b1-4)GlcNAc(b1-4)[Fuc(a1-6)]GlcNAc
How it was run: as §1

[3] = molecular target: GlcNAc(b1-3)Gal(b1-4)GlcNAc(b1-3)Gal(b1-4)GlcNAc(b1-2)[GlcNAc(b1-3)Gal(b1-4)GlcNAc(b1-3)Gal(b1-4)GlcNAc(b1-6)]Man(a1-6)[GlcNAc(b1-3)Gal(b1-4)GlcNAc(b1-3)Gal(b1-4)GlcNAc(b1-2)Man(a1-3)]Man(b1-4)GlcNAc(b1-4)[Fuc(a1-6)]GlcNAc
How it was run: as §1

[4] = molecular target: GlcNAc(b1-3)Gal(b1-4)GlcNAc(b1-3)Gal(b1-4)GlcNAc(b1-3)Gal(b1-4)GlcNAc(b1-2)Man(a1-3)[GlcNAc(b1-3)Gal(b1-4)GlcNAc(b1-3)Gal(b1-4)GlcNAc(b1-3)Gal(b1-4)GlcNAc(b1-2)Man(a1-6)]Man(b1-4)GlcNAc(b1-4)GlcNAc
How it was run: as §1

[5] = molecular target: GlcNAc(b1-3)Gal(b1-4)GlcNAc(b1-3)Gal(b1-4)GlcNAc(b1-3)Gal(b1-4)GlcNAc(b1-2)Man(a1-3)[GlcNAc(b1-3)Gal(b1-4)GlcNAc(b1-3)Gal(b1-4)GlcNAc(b1-3)Gal(b1-4)GlcNAc(b1-2)Man(a1-6)]Man(b1-4)GlcNAc(b1-4)[Fuc(a1-6)]GlcNAc
How it was run: as §1

[6] = molecular target: GlcNAc(b1-3)Gal(b1-4)GlcNAc(b1-3)Gal(b1-4)GlcNAc(b1-3)Gal(b1-4)GlcNAc(b1-2)[GlcNAc(b1-3)Gal(b1-4)GlcNAc(b1-3)Gal(b1-4)GlcNAc(b1-3)Gal(b1-4)GlcNAc(b1-6)]Man(a1-6)[GlcNAc(b1-3)Gal(b1-4)GlcNAc(b1-3)Gal(b1-4)GlcNAc(b1-3)Gal(b1-4)GlcNAc(b1-2)Man(a1-3)]Man(b1-4)GlcNAc(b1-4)[Fuc(a1-6)]GlcNAc
How it was run: as §1

[7] = molecular target: GlcNAc(b1-3)Gal(b1-4)GlcNAc(b1-3)Gal(b1-4)GlcNAc(b1-3)Gal(b1-4)GlcNAc(b1-3)Gal(b1-4)GlcNAc(b1-2)Man(a1-3)[GlcNAc(b1-3)Gal(b1-4)GlcNAc(b1-3)Gal(b1-4)GlcNAc(b1-3)Gal(b1-4)GlcNAc(b1-3)Gal(b1-4)GlcNAc(b1-2)Man(a1-6)]Man(b1-4)GlcNAc(b1-4)GlcNAc
How it was run: as §1

[8] = molecular target: GlcNAc(b1-3)Gal(b1-4)GlcNAc(b1-3)Gal(b1-4)GlcNAc(b1-3)Gal(b1-4)GlcNAc(b1-3)Gal(b1-4)GlcNAc(b1-2)Man(a1-3)[GlcNAc(b1-3)Gal(b1-4)GlcNAc(b1-3)Gal(b1-4)GlcNAc(b1-3)Gal(b1-4)GlcNAc(b1-3)Gal(b1-4)GlcNAc(b1-2)Man(a1-6)]Man(b1-4)GlcNAc(b1-4)[Fuc(a1-6)]GlcNAc
How it was run: as §1

[9] = molecular target: GlcNAc(b1-3)Gal(b1-4)GlcNAc(b1-3)Gal(b1-4)GlcNAc(b1-3)Gal(b1-4)GlcNAc(b1-3)Gal(b1-4)GlcNAc(b1-2)[GlcNAc(b1-3)Gal(b1-4)GlcNAc(b1-3)Gal(b1-4)GlcNAc(b1-3)Gal(b1-4)GlcNAc(b1-3)Gal(b1-4)GlcNAc(b1-6)]Man(a1-6)[GlcNAc(b1-3)Gal(b1-4)GlcNAc(b1-3)Gal(b1-4)GlcNAc(b1-3)Gal(b1-4)GlcNAc(b1-3)Gal(b1-4)GlcNAc(b1-2)Man(a1-3)]Man(b1-4)GlcNAc(b1-4)[Fuc(a1-6)]GlcNAc
How it was run: as §1

[10] = molecular target: GlcNAc(b1-3)Gal(b1-4)GlcNAc(b1-3)Gal(b1-4)GlcNAc(b1-3)GalNAc
How it was run: as §1

[11] = molecular target: GlcNAc(b1-3)Gal(b1-4)GlcNAc(b1-3)GalNAc
How it was run: as §1

[12] = molecular target: GlcNAc(b1-3)Gal(b1-4)GlcNAc(b1-3)[GlcNAc(b1-3)Gal(b1-4)GlcNAc(b1-3)]GalNAc
How it was run: as §1

[13] = molecular target: GlcNAc(b1-3)Gal(b1-4)GlcNAc(b1-6)[Gal(b1-3)]GalNAc
How it was run: as §1

[14] = molecular target: GlcNAc(b1-3)Gal(b1-4)GlcNAc(b1-6)[GlcNAc(b1-3)Gal(b1-3)]GalNAc
How it was run: as §1

[15] = molecular target: GlcNAc(b1-3)Gal(b1-4)GlcNAc(b1-6)[GlcNAc(b1-3)]Gal(b1-4)GlcNAc
How it was run: as §1

[16] = molecular target: GlcNAc(b1-3)GalNAc
How it was run: as §1

[17] = molecular target: GlcNAc(b1-3)Man
How it was run: as §1

[18] = molecular target: GlcNAc(b1-3)[GlcNAc(b1-4)][GlcNAc(b1-6)]GlcNAc
How it was run: as §1

[19] = molecular target: GlcNAc(b1-3)[GlcNAc(b1-6)]Gal(b1-4)GlcNAc
How it was run: as §1

[20] = molecular target: GlcNAc(b1-3)[GlcNAc(b1-6)]GalNAc
How it was run: as §1

[21] = molecular target: GlcNAc(b1-4)Gal(b1-4)GlcNAc
How it was run: as §1

[22] = molecular target: GlcNAc(b1-4)GlcNAc
How it was run: as §1

[23] = molecular target: GlcNAc(b1-4)GlcNAc(b1-4)GlcNAc
How it was run: as §1

[24] = molecular target: GlcNAc(b1-4)GlcNAc(b1-4)GlcNAc(b1-4)GlcNAc(b1-4)GlcNAc
How it was run: as §1

[25] = molecular target: GlcNAc(b1-4)GlcNAc(b1-4)GlcNAc(b1-4)GlcNAc(b1-4)GlcNAc(b1-4)GlcNAc
How it was run: as §1

[26] = molecular target: GlcNAc(b1-4)[GlcNAc(b1-6)]GalNAc
How it was run: as §1

[27] = molecular target: GlcNAc(b1-6)Gal(b1-4)GlcNAc
How it was run: as §1

[28] = molecular target: GlcNAc(b1-6)GalNAc
How it was run: as §1

[29] = molecular target: GlcNAc6S(b1-3)Gal(b1-4)GlcNAc
How it was run: as §1

[30] = molecular target: Kdn(a2-3)Gal(b1-3)GalNAc
How it was run: as §1

[31] = molecular target: Kdn(a2-3)Gal(b1-3)GlcNAc
How it was run: as §1

[32] = molecular target: Kdn(a2-3)Gal(b1-4)Glc
How it was run: as §1

[33] = molecular target: Kdn(a2-3)Gal(b1-4)GlcNAc
How it was run: as §1

[34] = molecular target: Kdn(a2-3)Gal(b1-4)[Fuc(a1-3)]GlcNAc
How it was run: as §1

[35] = molecular target: Kdn(a2-6)Gal(b1-4)GlcNAc
How it was run: as §1

[36] = molecular target: Man(a1-2)Man(a1-2)Man(a1-3)Man
How it was run: as §1

[37] = molecular target: Man(a1-2)Man(a1-2)Man(a1-6)[Man(a1-3)]Man
How it was run: as §1

[38] = molecular target: Man(a1-2)Man(a1-3)Man
How it was run: as §1

B1: SP16664B-bot-474-25-474 (Bacteroides ovatus) (protein)
chain: CEEDIEIGNKIDESSYLASTQLSGLLLDENTNKNSSVIELRNNEYSTNVVFRLSKLPQKGVDVQIAVEESYAAIYNTIHETDFEVFPAANVKIANNGTFVLAPDDKVTPSVKVTLTAFDGMEEDKTYIVPLTVTSSTEGVTFTETSKHMVLLVQDYRNKPNTNKGEDAVQTVLYFEVNDTNPLNALEFLTESGKYFFDHIVLFAANINWDPEKQRVYLANNENVQFLLDNNDKYLQPLRKAGMKIIISILGNHDEAGVAQLSDMGAREFARELAAYCRAYNLDGVAFDDEYSNSPDLSNPWLASPSAYAGSRLMYECKAVMPEKIVSLYNLGNMYSSSLQVIDGIEPGQYCDYAVADYGGAAGPGTGMTLKQCAGMSIELRRGSGNSSESTARSRKEAGYGYYMFFALDPSLYGSQVYRCQSVCKGLYDETLVYPSYYYKKNSTEREAIN
glycan array binding signal (z-score) [1]: 0.873
glycan array binding signal (z-score) [2]: 11.2
glycan array binding signal (z-score) [3]: -0.22
glycan array binding signal (z-score) [4]: 0.76
glycan array binding signal (z-score) [5]: 0.462
glycan array binding signal (z-score) [6]: 0.018
glycan array binding signal (z-score) [7]: -0.189
glycan array binding signal (z-score) [8]: 0.334
glycan array binding signal (z-score) [9]: 0.26
glycan array binding signal (z-score) [10]: -0.379
glycan array binding signal (z-score) [11]: 0.102
glycan array binding signal (z-score) [12]: -0.158
glycan array binding signal (z-score) [13]: 1.57
glycan array binding signal (z-score) [14]: 1.42
glycan array binding signal (z-score) [15]: -0.162
glycan array binding signal (z-score) [16]: -0.346
glycan array binding signal (z-score) [17]: 0.501
glycan array binding signal (z-score) [18]: 0.579
glycan array binding signal (z-score) [19]: -0.365
glycan array binding signal (z-score) [20]: -0.205
glycan array binding signal (z-score) [21]: -0.301
glycan array binding signal (z-score) [22]: -0.02
glycan array binding signal (z-score) [23]: -0.542
glycan array binding signal (z-score) [24]: 1
glycan array binding signal (z-score) [25]: -0.271
glycan array binding signal (z-score) [26]: -0.298
glycan array binding signal (z-score) [27]: -0.268
glycan array binding signal (z-score) [28]: -0.234
glycan array binding signal (z-score) [29]: 0.26
glycan array binding signal (z-score) [30]: -0.281
glycan array binding signal (z-score) [31]: -0.35
glycan array binding signal (z-score) [32]: -0.182
glycan array binding signal (z-score) [33]: -0.391
glycan array binding signal (z-score) [34]: -0.002
glycan array binding signal (z-score) [35]: 0.531
glycan array binding signal (z-score) [36]: -0.346
glycan array binding signal (z-score) [37]: -0.417
glycan array binding signal (z-score) [38]: -0.437
